Measurements published in article PMC4468182, “Murine Efficacy and Pharmacokinetic Evaluation of the Flaviviral NS5 Capping Enzyme 2-Thioxothiazolidin-4-One Inhibitor BG-323” (PLoS ONE, 2015).

System: Caco-2 cells
Assay: Caco-2 cell permeability assay
Description: BG-323 stock in DMSO was diluted to a final concentration of 5 μM in Hanks Buffered Salt Solution (HBSS) with 1% DMSO. The assay system was a Transwell system containing confluent monolayers of 21-28-day-old Caco-2 cells with 1% bovine serum albumin in HBSS in the receiver well and both apical and basolateral sides at pH 7.4. Monolayer quality was tested using an internal control prior to use by verifying trans-epithelial electrical resistance measurements and calculating the apparent permeability coefficient (Papp) for the control compound prior to monolayer use. Each side of the monolayer, apical for A to B assessment and basolateral for B to A assessment, was dosed twice and resulting flow through was sampled after 120 min. Influx and efflux of BG-323 was quantified using LC-MS/MS with a minimum 4 point standard curve. Percent recovery and the Papp were determined for BG-323 in each direction. Efflux ratio (Papp B to A) / (Papp A to B) was also calculated.

CC(C)(C)c1ccc(/C=C2/SC(=S)N(CCC(=O)O)C2=O)cc1 [BG-323, (E)-{3-[5-94-tert-butylbenzylidene0-4-oxo-2-thioxo-1,3-thiazolidin-3-yl]propanoic acid}]
Permeability Classification: High (high when App is ≥ 1.0 x 10^−6 cm/s^)
Significant Efflux: NO (Significant efflux occurs when the efflux ratio is ≥ 3 and Papp (B to A) ≥ 1.0 x 10^−6 cm/s)
